First the molecules themselves.
B1: Caulobacter ParB omega fusion; a variant is named by its letters at X, in order, B8GW30 (parent)
chain: MESVVVGEPGMSEGRRGLGRGLSALLGEVDAAPAQAPGEQLGGSREAPIEILQRNPDQPRRTFREEDLEDLSNSIREKGVLQPILVRPSPDTAGEYQIVAGERAWRAAQRAGLKTVPIMVRELDDLAVLEIGIIENVQRADLNVLEEALSYKVLMEKFERTQENIAQTIGKSXSHVANXMRLLXLPDEVQSYLVSGELTAXHARAIAAAADPVALAKQIIEGGLSVRETEALARKAPNLSAGKSKGGRPPRVKDTDTQALESDLSSVLGLDVSIDHRGSTGTLTITYATLEQLDDLCNRLTRGI

The full ranking holds about 81,000 sequences; the median of “one-hybrid fitness for binding NBS DNA” is about -0.1, and the highest 2% start at about 0.36. The list shows a part of the results.

In the experiment the parent is B1. The experiment is described as follows: one-hybrid fitness for binding NBS DNA (the Noc-binding site; scaled: cognate 1, non-cognate 0); higher = stronger binding. The settings on record: with NBS DNA site. Summed up: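 Values were rescaled so that cognate is 1 and non-cognate is 0. Each is a fitness, the log change in a variant's read ratio to wild type from Illumina reads of plasmids before and after selection, with three replicate libraries pooled and variants under 10 reads dropped. Selection of the Caulobacter ParB libraries, four specificity codons randomised, used E. coli USO with a HIS3 reporter, site 19 bp from the promoter, on M9-minus-histidine with 0.1 mM IPTG and 5 mM 3-AT for 48 hours at 37°C.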
As to MMPR, the “one-hybrid fitness for binding NBS DNA” value was at most 0.2. For IRSC the value was at most 0.2. For QAKI the value was 0.299. For RAMT the value was 0.303; for PPMC, at most 0.2; for YCDF, at most 0.2. On to QTCM, for which the “one-hybrid fitness for binding NBS DNA” value was at most 0.2. As for YWKG, the “one-hybrid fitness for binding NBS DNA” value is at most 0.2.

Regarding TYSH, the “one-hybrid fitness for binding NBS DNA” value was at most 0.2. Regarding AHGI, the “one-hybrid fitness for binding NBS DNA” value is at most 0.2. For RLNQ the value was at most 0.2; for IRYV, at most 0.2; for RIYK, at most 0.2. For RWRF the value was at most 0.2; for WPPT, at most 0.2. For YRKG the value was at most 0.2. Consider WAAL, for which the “one-hybrid fitness for binding NBS DNA” value is at most 0.2. For HPRD the value was at most 0.2; for SSMM, at most 0.2. For ALTI the value was at most 0.2; for RRQI, at most 0.2. For PPVC the value was at most 0.2; for TYNY, at most 0.2. Consider TPHV, for which the “one-hybrid fitness for binding NBS DNA” value was at most 0.2.

Turning to TRAH, the “one-hybrid fitness for binding NBS DNA” value is at most 0.2. For the variant IDNI, the “one-hybrid fitness for binding NBS DNA” value worked out at 0.591.

For AFYC, the “one-hybrid fitness for binding NBS DNA” value was at most 0.2.

Regarding YTQT, the “one-hybrid fitness for binding NBS DNA” value was at most 0.2. For EVHT the value was at most 0.2; for DQES, at most 0.2. For HTQA the value was at most 0.2. Take TVRH: the “one-hybrid fitness for binding NBS DNA” value is at most 0.2. For IQNY the value was at most 0.2; for NNTV, at most 0.2; for LVPN, at most 0.2. For QAKR the value was 0.982; for WTQA, at most 0.2; for QWHW, at most 0.2.

With PTRW, the “one-hybrid fitness for binding NBS DNA” value was at most 0.2. For QTCE the value was at most 0.2; for AAMR, at most 0.2; for LLDL, at most 0.2.

Consider TEHW, for which the “one-hybrid fitness for binding NBS DNA” value is at most 0.2. For HYDE the value was at most 0.2; for CDVS, at most 0.2. Consider YRRS, for which the “one-hybrid fitness for binding NBS DNA” value was at most 0.2. For PLYI, the “one-hybrid fitness for binding NBS DNA” value was at most 0.2. For FTRF the value was at most 0.2; for PILK, at most 0.2. As to LAEG, the “one-hybrid fitness for binding NBS DNA” value was at most 0.2. For SIHF the value was at most 0.2; for GSFE, at most 0.2. For VTAM the value was at most 0.2; for IISG, at most 0.2; for TCMS, at most 0.2.

Consider YPPF, for which the “one-hybrid fitness for binding NBS DNA” value is at most 0.2. For DALF the value was at most 0.2. For ELAM the value was at most 0.2; for RAWQ, at most 0.2. For LMYI the value was at most 0.2; for SKSE, at most 0.2. Take YWNN: the “one-hybrid fitness for binding NBS DNA” value is at most 0.2.

Take VFNL: the “one-hybrid fitness for binding NBS DNA” value was at most 0.2.

For HRHA, the “one-hybrid fitness for binding NBS DNA” value is at most 0.2. For WNAK the value was at most 0.2; for DVTV, at most 0.2; for LNVG, at most 0.2.

For HWTL, the “one-hybrid fitness for binding NBS DNA” value was at most 0.2. For HHRW the value was at most 0.2; for CTMT, at most 0.2; for VLRT, at most 0.2. In the case of HHWV, the “one-hybrid fitness for binding NBS DNA” value is at most 0.2.

For the variant PIKN, the “one-hybrid fitness for binding NBS DNA” value was at most 0.2.

In the case of RMAY, the “one-hybrid fitness for binding NBS DNA” value is at most 0.2. GSRP: the “one-hybrid fitness for binding NBS DNA” value was at most 0.2.

With PCYT, the “one-hybrid fitness for binding NBS DNA” value is at most 0.2. For NSPC the value was at most 0.2; for NQRK, at most 0.2; for QCPK, at most 0.2. Take NKMS: the “one-hybrid fitness for binding NBS DNA” value is at most 0.2.

For the variant DSNY, the “one-hybrid fitness for binding NBS DNA” value is at most 0.2.

QMFG: the “one-hybrid fitness for binding NBS DNA” value was at most 0.2. In the case of QLTL, the “one-hybrid fitness for binding NBS DNA” value is at most 0.2. In the case of IWTR, the “one-hybrid fitness for binding NBS DNA” value is at most 0.2. Turning to ACNH, the “one-hybrid fitness for binding NBS DNA” value was at most 0.2. Turning to QYFF, the “one-hybrid fitness for binding NBS DNA” value is at most 0.2.

With SGRR, the “one-hybrid fitness for binding NBS DNA” value is at most 0.2.

For the variant THTK, the “one-hybrid fitness for binding NBS DNA” value was at most 0.2.

In the case of PWFG, the “one-hybrid fitness for binding NBS DNA” value is at most 0.2. On to IAIR, for which the “one-hybrid fitness for binding NBS DNA” value was at most 0.2.

In the case of PLGG, the “one-hybrid fitness for binding NBS DNA” value was at most 0.2. For LPDW the value was at most 0.2; for IPTP, at most 0.2. For TLAS the value was at most 0.2; for VTKD, at most 0.2; for VSNS, at most 0.2. For LIGR the value was at most 0.2; for TNMH, at most 0.2.

(Values after a collection of fitness landscapes (doi:10.1016/j.celrep.2020.107928).)
